From PubChem BioAssay AID1347073 (National Center for Advancing Translational Sciences (NCATS), 2019)
The campaign covered roughly 45,000 compounds. About 200 (0.44%) were called active. Another 7% or so got no clear call; they are omitted. The call rests on the fitted dose curve; in most records, active means well fitted activation curve with a large enough effect; inconclusive means small, poorly fitted or top-dose-only effect; inactive means no such curve, though single readings can be large or run the other way. The list shows a part of the results.

Assay: qHTS of TDP-43 Inhibitors: NCGC Sytravon Library Screen; further: 0% is about no effect; nearly all actives have a fitted effect of over 55% in size
Details: yeast TDP-43 toxicity rescue, BacTiter-Glo growth, 24 h; series mostly up to 46.1 µM; growth rescue (activation): at the top concentration
Procedure, shortened: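 TDP-43-expressing yeast, pregrown in raffinose, seeded at OD600 0.02 in galactose medium with compound for 24 hr at 30 deg C. Growth read by BacTiter-Glo luminescence, so rescue of toxicity appears as activation.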

Row | SMILES | growth rescue (activation)
1 | CCN(CCCNC(=O)CSc1cc(=O)n(C)c2cc(Cl)ccc12)Cc1ccccc1 | inactive: 3.02%
2 | COCCNC(=O)C1(C)CCCN(CCS(=O)(=O)c2ccc(C)cc2)C1 (stereo unspecified) | inactive: 2.73%
3 | CCn1cc(C(=O)NCCc2ccccc2)c(=O)c2cc(S(=O)(=O)N(C)C)ccc21 | inactive: 8.37%
4 | COc1ccc(NC(=O)c2cc(-c3ccccc3)oc2C)cc1 | inactive: 11.2%
5 | COC(=O)n1c(=O)oc2ccc(S(=O)(=O)N3CCCCC3)cc21 | inactive: 7.61%
6 | O=C(NCCCN1CCCCC1)c1ccc2c(=O)n(CCc3ccccc3)c(=O)[nH]c2c1 | inactive: 19.8%
7 | CC(=O)N(c1ccc(C)cc1)c1nc(C)cc(C)c1C#N | inactive: -11.5%
8 | Cc1sc(N)nc1-c1c(C)n(C)c2ccccc12 | inactive: 2.09%
9 | COc1ccc(C(=O)OCC(=O)N2CCc3ccccc32)cc1S(=O)(=O)N1CCOCC1 | inactive: 3.64%
10 | CCc1nc2ccc(C(=O)NCc3ccc4c(c3)OCO4)cn2c1N(C)Cc1ccc(OC)cc1 | inactive: 2.93%
11 | Cc1sc(-n2cccc2)c(C(C)NC(=O)Nc2ccccc2Cl)c1C (stereo unspecified) | inactive: 20.3%
12 | COc1ccc([N+](=O)[O-])cc1NC(=O)COC(=O)c1ccccc1O | inactive: 24.7%
13 | O=C(CCCN1C(=O)c2ccccc2C1=O)Nc1nnc(C2CC2)s1 | inactive: -2.45%
14 | COc1ccc(NC(=O)C2CCC(C(C)(C)C)CC2)cc1S(=O)(=O)N1CCCCC1 (stereo unspecified) | inactive: 13.8%
15 | COc1ccncc1-c1csc(C(O)c2ccccc2)n1 (stereo unspecified) | inactive: -1.15%
16 | O=C(O)C(Cc1c[nH]c2ccccc12)NS(=O)(=O)c1cccc2nsnc12 (stereo unspecified) | inactive: 3.7%
17 | CCOC(=O)c1c(NC2=NS(=O)(=O)c3ccccc32)sc2c1CCCCC2 | inactive: 23%
18 | COc1cc(/C=C/C(=O)Nc2cc(S(=O)(=O)N3CCOCC3)ccc2N2CCCC2)cc(OC)c1OC | inactive: 1.89%
19 | Cc1cccc2sc(NC(=O)CSc3cn[nH]n3)nc12 | inactive: 5.27%
20 | Cc1cc(C(=O)NC(=S)Nc2ccccc2N2CCOCC2)ccc1[N+](=O)[O-] | inactive: 25.4%
21 | OC(c1ccccc1)(C1CCCCC1)C(CN1CCOCC1)c1ccccc1 (stereo unspecified) | inactive: -31.4%
22 | Cc1cc(C)nc(NS(=O)(=O)c2ccc(NC(=O)Nc3ccccc3)cc2)n1 | inactive: 10.6%

Row | SMILES | growth rescue (activation)
23 | O=C(OC(C(=O)NCc1ccccc1)c1ccccc1)c1ccco1 (stereo unspecified) | inactive: 7.77%
24 | CCC(=O)Nc1ccc2c(c1)C(=O)N(C)C2=O | inactive: -5.04%
25 | O=S(=O)(NNc1ncc(C(F)(F)F)cc1Cl)c1ccccc1 | inactive: 1.18%
26 | CCOC(=O)C1(Cc2ccccc2C(F)(F)F)CCN(CCCn2cccn2)CC1 | inactive: 10.7%
27 | CCOc1cc(N2CCOCC2)c(OCC)cc1NC(=O)COC(=O)[C@H](Cc1c[nH]c2ccccc12)NC(C)=O | inactive: 12.6%
28 | S=C(/N=c1/sccn1Cc1ccccc1)NC1CC1 | inactive: 16.2%
29 | O=C(CSc1nnc(-c2ccccc2O)o1)N1CCCCC1 | inactive: -1.23%
30 | Cc1ccc(NC(=O)CCC(=O)NNC(=O)NC23CC4CC(CC(C4)C2)C3)cc1C | inactive: 12.4%
31 | CCOc1cccc(CNCCO)c1OCc1ccc(Cl)cc1 | inactive: -4.42%
32 | CC1=NN(c2nc(-c3ccc(C#N)cc3)cs2)C(=O)C1 | inactive: 20.9%
33 | CCc1nnc(NC(=O)c2ccc(COc3ccccc3C)o2)s1 | inactive: 23.5%
34 | CCOC(=O)N1CCN(C(=O)CCN2C(=O)/C(=C\c3cccc(OC)c3)SC2=S)CC1 | inactive: 13.2%
35 | Cc1ccccc1NC(=O)CN1C(=O)NC(C)(c2ccc3c(c2)OCO3)C1=O (stereo unspecified) | inactive: 8.01%
36 | COc1cc(C2Nc3c(F)cccc3C3C=CCC32)cc(Br)c1OC (stereo unspecified) | inactive: 8.23%
37 | Cn1c(=O)n(Cc2ccccc2Cl)c(=O)c2c1[nH]c(=S)n2C | inactive: 15.3%
38 | COc1cccc(-c2nc3cc(C)ccc3o2)c1 | inactive: -14%
39 | CN(C)S(=O)(=O)c1ccc(Cl)c(NC(=O)COC(=O)[C@@H]2CCCN2C(=O)c2cccs2)c1 | inactive: -3.23%
40 | CCN(CC)c1ccc(/C=N/OC(C)C(=O)Nc2ccc(C)cc2)cc1 (stereo unspecified) | inactive: -21%
41 | O=c1oc2c(-c3ccc([N+](=O)[O-])cc3)cc(O)cc2s1 | inactive: -6.96%
42 | O=C(CCc1ccccc1)Nc1cccnc1Cl | inactive: 11.7%
43 | CCCc1cc(=O)n2[nH]c(C)c(-c3ccccc3)c2n1 | inactive: 2.03%
44 | CCOC(=O)CSC1=C(C#N)C(c2ccc(C)cc2)C2=C(CCCC2=O)N1 (stereo unspecified) | inactive: -0.752%

Row | SMILES | growth rescue (activation)
45 | N#Cc1ccc(CSCC(=O)NN=C2CCCC2)cc1 | inactive: 12.3%
46 | Cc1ccc(NC2=NC(c3ccc(F)cc3)n3c(nc(C)cc3=O)N2)c(C)c1 (stereo unspecified) | inactive: -4.63%
47 | COc1ccccc1N(CCOc1ccccc1)S(=O)(=O)c1ccccc1 | inactive: 7.74%
48 | CC(=O)Nc1ccc(S(=O)(=O)NC2(C(F)(F)F)NC(=O)N(c3ccccc3F)C2=O)cc1 (stereo unspecified) | inactive: 16.5%
49 | COC(=O)c1ccc(OCC(O)CNC2CCCC2)cc1 (stereo unspecified) | inactive: -3.3%
50 | CCCN(CC(=O)Nc1ccc(Cl)cc1Cl)C(=O)/C=C/c1cccc([N+](=O)[O-])c1 | inactive: -2.64%
51 | O=C(CSc1nnc(-c2cccc(F)c2)o1)N1CCOCC1 | inactive: -0.845%
52 | COc1ccc(N2C(=O)NC(NS(=O)(=O)c3ccccc3)(C(F)(F)F)C2=O)cc1 (stereo unspecified) | inactive: 2.56%
53 | O=C(COC(=O)c1ccc([N+](=O)[O-])o1)Nc1cccc2ccccc12 | inactive: -47.4%
54 | COc1ccc(CCNC(=O)c2sc3ccccc3c2Cl)cc1OC | inactive: 24.5%
55 | Cc1ccc(NC(=O)Nc2nnc(Cc3ccc([N+](=O)[O-])cc3)s2)cc1C | inactive: 12.1%
56 | CCOC(=O)C(=O)N(C)c1c(CC)nc2c(OCc3cccc(Cl)c3)cccn12 | inactive: 9.34%
57 | COc1cc(/C=N/NC(=O)c2ccncc2)ccc1OC(=O)c1ccco1 | inactive: 4.54%
58 | O=C(O)C1=C(C(=O)Nc2cc(C(F)(F)F)ccc2Cl)CCCC1 | inactive: 27%
59 | CCN(Cc1ccncc1)C(=O)c1cc(Br)cc(Br)c1O | inactive: -9.53%
60 | CC(C)Oc1cc(F)ccc1-c1cc(C(=O)NCCc2ccncc2)[nH]n1 | inactive: 7.03%
61 | COC(=O)C1=C(C)N(Cc2ccc(OC)cc2)C(=O)/C1=C\c1ccco1 | inactive: 7.47%
62 | NC(=O)COC(=O)c1ccc(NS(=O)(=O)c2ccc3c(c2)OCCO3)cc1 | inactive: 10.9%
63 | COc1ccc(-n2c(COc3ccc(C)cc3)nnc2SCC(=O)O)cc1 | inactive: 6.11%
64 | CC(C)N1CCC(N2CCN(Cc3ccc(C#CC(C)(C)O)s3)CC2CCO)CC1 (stereo unspecified) | inactive: 2.11%
65 | Cn1cc(C(=O)c2cccc(Cl)c2)cc1/C=N\O | inactive: -0.434%
66 | NS(=O)(=O)c1cccc(NS(=O)(=O)c2ccc(/C=C/C(=O)OCC(=O)c3ccccc3)cc2)c1 | inactive: 5.37%

Row | SMILES | growth rescue (activation)
67 | Cc1cccc(-n2cc(C(=O)O)c(=O)cc2C)c1 | inactive: 3.53%
68 | Cc1ccc(CNC(=O)C2CCC(=O)N2C(C)C)cc1 (stereo unspecified) | inactive: 13.3%
69 | c1ccc(NCc2nc3ccccc3n2CCOc2ccccc2)cc1 | inactive: 14.5%
70 | COc1ccc(CCNC(=O)Nc2nnc([C@H]3C[C@H](O)[C@@H](CO)O3)s2)cc1OC | inactive: -8.07%
71 | CCc1ccc(S(=O)(=O)Nc2ccc(Br)cn2)cc1 | inactive: 9.69%
72 | CCc1ccc(NC(=S)NC2CC3CCCC(C2)N3Cc2ccccc2)cc1 (stereo unspecified) | inactive: -4.57%
73 | CCC(=O)N1CCCN(S(=O)(=O)c2ccc(C)cc2)C1c1ccc(OC)cc1 (stereo unspecified) | inactive: 0.0018%
74 | COCCn1cnc2c1c(=O)n(CC(=O)NCC(F)(F)F)c(=O)n2Cc1ccccc1 | inactive: 1.22%
75 | COc1cc2c(cc1OC)C(c1cccs1)N(C(=O)c1cccnc1)CC2 (stereo unspecified) | inactive: 14.8%
76 | CC(C)(C)c1ccc(CC(=O)N2CCC2(C)C(=O)NS(=O)(=O)c2ccc3c(c2)CCO3)cc1 (stereo unspecified) | inactive: 13.5%
77 | Cc1cc(NC(=O)C(C)C)ncc1NC(=O)CCc1ccccc1 | inactive: 33.7%
78 | O=C1CCC(C(=O)NCc2ccccc2)N1 (stereo unspecified) | inactive: 7.69%
79 | COc1ccccc1N1N=C(c2ccc([N+](=O)[O-])cc2)CC1c1ccccc1 (stereo unspecified) | inactive: 4.79%
80 | CCOc1ccc2cc(C3CC(c4ccco4)=NN3S(C)(=O)=O)c(Cl)nc2c1 (stereo unspecified) | inactive: 22.1%
81 | COc1ccccc1-c1cnc(C(O)c2cc(C)ccc2C)[nH]1 (stereo unspecified) | inactive: 8.02%
82 | O=S(=O)(c1cc(Cl)ccc1Cl)N1CCN2CCCC2C1 (stereo unspecified) | inactive: -1.74%
83 | CSCC[C@H](NC(=O)NCCC1=CCCCC1)C(=O)O | inactive: 12.4%
84 | O=C(Cn1cc(C(F)(F)F)ccc1=O)Nc1cccc(S(=O)(=O)N2CCOCC2)c1 | inactive: 1.11%
85 | COc1ccc(OC)c(-n2c(=S)[nH]c3c(sc(=S)n3-c3ccccc3)c2=O)c1 | inactive: -6.46%
86 | O=C(Nc1ccnn1C1CCNCC1)c1ccc2c(c1)OCO2 | inactive: -7.21%
87 | COc1ccccc1-c1ocnc1C(=O)N1CCN(C(=O)C(c2ccccc2)c2ccccc2)CC1 | inactive: -4.31%
88 | COC(=O)C1CCN(C(=O)CN2C(=O)NC3(CCC(C)CC3)C2=O)CC1 (stereo unspecified) | inactive: -2.01%

Row | SMILES | growth rescue (activation)
89 | O=C(NCC1(O)CCCCC1)C1CCC(=O)N(CCc2ccccc2)C1 (stereo unspecified) | inactive: -8%
90 | COC(=O)/C=C1\SC(=NC(=O)c2ccc(OC)cc2)NC1=O | inactive: -0.504%
91 | Cc1nn(Cc2ccccc2)c2c1C(c1cccc(Cl)c1)C(C#N)=C(N)O2 (stereo unspecified) | inactive: 4.67%
92 | Cc1ccc(OCC(=O)NCCNC(=O)c2ccco2)cc1C | inactive: 1.47%
93 | Cc1cc(C)cc(C(O)c2ncc(-c3ccccc3C(F)(F)F)[nH]2)c1 (stereo unspecified) | inactive: 10.5%
94 | CN(NC(=O)c1ccccc1F)c1nc(C(F)(F)F)nc2ccccc12 | inactive: 15.1%
95 | CCOc1ccccc1C(=O)Nc1c[nH]c(=O)[nH]c1=O | inactive: 15.7%
96 | CN1/C(=C\C(=O)C(F)F)C(C)(C)c2ccccc21 | inactive: 12%
97 | CCC(=O)NC(c1ccc(C)cc1)c1ccc2cccnc2c1O (stereo unspecified) | inactive: 9.92%
98 | NS(=O)(=O)c1ccc(N=Nc2c(O)[nH]c3ccc(Br)cc23)cc1 | inactive: -4.76%
99 | Nc1cc(-c2ccc(Cl)cc2)nn1-c1ccccc1 | inactive: 16%
100 | O=C(CN1C(=O)c2ccccc2C1=O)NC1CCCCCC1 | inactive: -9.81%
101 | O=C(Cc1cnc2ncnn2c1)N1CCc2c([nH]c3ccccc23)C1c1ccccn1 (stereo unspecified) | inactive: 0.129%
102 | CC(CCc1ccccc1)NC(=O)COC(=O)c1ccc([N+](=O)[O-])cc1 (stereo unspecified) | inactive: 4.19%
103 | O=C(COC(=O)/C=C/c1ccc(F)cc1)Nc1cc(C(F)(F)F)ccc1N1CCOCC1 | inactive: 10.2%
104 | COC(=O)c1ccccc1NC(=O)NCCc1ccccc1OC | inactive: 15.1%
105 | O=C(CSc1ccc(Cl)cc1)Nc1cccc(-c2nnc(-c3ccco3)o2)c1 | inactive: 19.6%
106 | CN1CCN(c2ccc(NC(=O)c3ccc(-c4ccc(Br)cc4)o3)cc2)CC1 | inactive: -0.364%
